From PubChem BioAssay AID1347165 (National Center for Advancing Translational Sciences (NCATS), 2019)
Screen size: about 220,000 compounds; about 5,700 (2.6%) were called active. Inconclusive means that the source gave no clear call. Such entries were picked first, then a sample of the others. The call rests on the fitted dose curve; in most records, active means well fitted inhibition curve with a large enough effect; inconclusive means small, poorly fitted or top-dose-only effect; inactive means no such curve, though single readings can be large or run the other way. Where the call is inconclusive, the potency comes from a doubtful curve fit.

Each compound was assayed against Lysine-specific demethylase 5B (Homo sapiens) (UniProt Q9UGL1) (assay: Primary screen for KDM5B Histone Demethylases FDH-coupled qHTS). Conditions: FDH-coupled NADH fluorescence (FDH is formaldehyde dehydrogenase); activity change, negative = inhibition: at 57.7 µM (top of the series) unless noted.
Summary of the method: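 Here, H3K4me3 peptide (12.5 µM in substrate mix) is demethylated by KDM5BΔAP, 200 nM final, after 10 min compound exposure. Formaldehyde product is coupled through FDH (0.25 U/mL in mix) to NADH fluorescence; 30-min ΔRFU feeds dose-response curves.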
Further: nearly all actives have a fitted effect of over 70% in size.
Potency means the concentration at half of the fitted maximal effect; tags describe the fitted curve by direction and shape.
Wherever activity change, negative = inhibition is given: 0% is about no effect.

Sequence of UniProt Q9UGL1 (Q9UGL1 whole entry, looked up): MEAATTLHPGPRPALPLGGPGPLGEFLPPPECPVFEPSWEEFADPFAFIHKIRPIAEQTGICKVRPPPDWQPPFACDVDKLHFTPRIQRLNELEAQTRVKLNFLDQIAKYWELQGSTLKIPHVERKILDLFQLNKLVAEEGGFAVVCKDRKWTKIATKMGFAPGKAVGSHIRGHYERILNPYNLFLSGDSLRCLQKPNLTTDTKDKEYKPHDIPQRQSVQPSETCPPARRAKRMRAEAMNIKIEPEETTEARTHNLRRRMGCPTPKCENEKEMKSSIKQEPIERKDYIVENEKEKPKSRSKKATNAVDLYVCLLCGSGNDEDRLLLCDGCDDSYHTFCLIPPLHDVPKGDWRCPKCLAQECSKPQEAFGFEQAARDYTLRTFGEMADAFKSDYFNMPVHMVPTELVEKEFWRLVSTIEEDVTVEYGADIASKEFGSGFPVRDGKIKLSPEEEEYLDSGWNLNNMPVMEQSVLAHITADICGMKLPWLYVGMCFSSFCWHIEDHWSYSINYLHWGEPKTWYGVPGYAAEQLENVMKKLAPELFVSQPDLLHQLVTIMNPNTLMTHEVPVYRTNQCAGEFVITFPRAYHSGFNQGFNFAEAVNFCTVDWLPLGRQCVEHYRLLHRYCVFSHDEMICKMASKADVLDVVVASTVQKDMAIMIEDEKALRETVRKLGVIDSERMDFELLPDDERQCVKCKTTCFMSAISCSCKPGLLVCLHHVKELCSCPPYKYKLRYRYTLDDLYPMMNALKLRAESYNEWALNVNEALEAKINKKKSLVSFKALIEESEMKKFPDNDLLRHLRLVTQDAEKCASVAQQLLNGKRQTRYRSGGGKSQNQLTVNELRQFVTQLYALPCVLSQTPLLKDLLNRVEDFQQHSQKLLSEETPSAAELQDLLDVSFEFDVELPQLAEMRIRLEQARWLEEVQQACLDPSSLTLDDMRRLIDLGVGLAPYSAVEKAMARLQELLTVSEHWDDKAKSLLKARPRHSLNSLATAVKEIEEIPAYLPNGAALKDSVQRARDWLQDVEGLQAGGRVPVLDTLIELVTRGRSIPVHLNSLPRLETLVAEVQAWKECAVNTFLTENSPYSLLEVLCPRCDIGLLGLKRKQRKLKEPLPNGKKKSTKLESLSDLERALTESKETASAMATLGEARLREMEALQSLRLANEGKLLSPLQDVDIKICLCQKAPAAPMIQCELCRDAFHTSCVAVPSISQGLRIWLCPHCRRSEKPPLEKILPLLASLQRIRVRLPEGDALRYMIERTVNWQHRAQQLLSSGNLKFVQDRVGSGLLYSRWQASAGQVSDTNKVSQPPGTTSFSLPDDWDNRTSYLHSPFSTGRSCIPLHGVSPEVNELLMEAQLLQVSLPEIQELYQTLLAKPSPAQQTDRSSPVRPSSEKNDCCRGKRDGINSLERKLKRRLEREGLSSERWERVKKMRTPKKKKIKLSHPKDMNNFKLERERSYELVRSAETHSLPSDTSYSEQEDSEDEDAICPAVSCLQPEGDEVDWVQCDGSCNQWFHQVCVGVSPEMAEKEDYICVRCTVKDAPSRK

Row | SMILES | Potency | activity change, negative = inhibition
1 | CCC(C)C(=O)OCc1cc(=O)oc2cc(O)ccc12 (stereo not drawn) | inconclusive: 25.1 µM [inhibitor, partial curve, poor fit] | –
2 | COc1ccc(C2C(C(=O)Nc3ccccc3OC)=C(C)Nc3nc(SC)nn32)cc1 (stereo not drawn) | inactive | –
3 | COc1ccc(OCC(=O)Nc2ccc3oc(-c4ccccc4C)nc3c2)cc1 | inconclusive: 28.2 µM [inhibitor, partial curve, poor fit] | –
4 | CC(C)c1nc(N2CCOCC2)ncc1C(=O)O | inconclusive: 35.5 µM [inhibitor, partial curve, poor fit] | –
5 | CCN(CC)c1ccc(C2C(C(N)=O)=C(C)Nc3nc(SCc4ccccc4)nn32)cc1 (stereo not drawn) | inconclusive: 22.4 µM [inhibitor, partial curve, poor fit] | –
6 | CCn1nc(C(=O)Nc2nc3ccccc3n2CC)c2ccccc2c1=O | inactive | –
7 | CC(=O)N1C[C@@H]2CCCN3CCC[C@@H]([C@H]23)[C@H]1CCCC(=O)NCCCc1ccccc1 | inconclusive: 28.2 µM [inhibitor, single point] | –
8 | CC(C)(C)NC(=O)CCN(/N=C/c1ccncc1)C1=NS(=O)(=O)c2ccccc21 | inconclusive: 39.8 µM [inhibitor, partial curve, poor fit] | –
9 | Fc1ccccc1Nc1cnc2ccc(-c3ccccc3)nn12 | inconclusive: 28.2 µM [inhibitor, partial curve, poor fit] | –
10 | O=C(Cn1cccc1-c1nc(-c2ccc3c(c2)OCO3)no1)Nc1ccc2c(c1)OCCO2 | inconclusive: 17.8 µM [inhibitor, partial curve, poor fit] | –
11 | O=C(NCc1nnc2ccc(-c3ccc(F)cc3)nn12)c1ccc(Cl)s1 | active: 28.2 µM | –
12 | COc1ccccc1N1CCN(Cc2cc(COC(C)C)c3cccnc3c2O)CC1 | inconclusive: 50.1 µM [inhibitor, single point] | –
13 | O=C(NCCCn1cccn1)c1cccnc1N1CC2CC(C1)[C@H]1CCCC(=O)N1C2 (stereo partly drawn) | active: 28.2 µM | –
14 | CCOC(=O)C1CCCN(C(=O)Cn2nc(C)n3c(cc4c(OC)cccc43)c2=O)C1 (stereo not drawn) | inconclusive: 28.2 µM [inhibitor, partial curve, poor fit] | –
15 | Cc1ccc(-c2ccc3nnc(CNC(=O)c4ccccn4)n3n2)cc1 | active: 31.6 µM | –
16 | CCC(C)n1c(=N)c(C(=O)NC2CCCCC2)cc2c(=O)n3cc(C)ccc3nc21 (stereo not drawn) | inconclusive: 2 µM [inhibitor, partial curve, poor fit] | –
17 | COCCn1c(=O)c2c(n1Cc1ccccc1)CN(Cc1cccc(C)n1)CC2 | active: 35.5 µM | –
18 | Cc1ccc(-n2c(=O)c3cccnc3n2CC(=O)Nc2ccccc2C(F)(F)F)cc1C | inconclusive: 28.2 µM [inhibitor, partial curve, poor fit] | –
19 | CC[C@H](C)NC(=O)CCCc1nnc2n(CCC(C)C)c(=O)c3sccc3n12 | inconclusive: 28.2 µM [inhibitor, partial curve, poor fit] | –
20 | CCc1nc2c(c(-c3ccc(OC)cc3)n1)CN(C(=O)c1ccc(C)cc1)CC2 | inconclusive: 20 µM [inhibitor, full curve, poor fit] | –
21 | COc1ccccc1OC(C)C(=O)N1CCN(CCc2ccccn2)CC1 (stereo not drawn) | inactive | –

Row | SMILES | Potency | activity change, negative = inhibition
22 | Cc1ccnc(NC(c2cc(C)ccc2O)c2ccc3cccnc3c2O)c1 (stereo not drawn) | inconclusive: 35.5 µM [inhibitor, single point] | –
23 | COc1ccc(-c2cn3c(n2)sc2cc(C(=O)NC4CCCCC4)ccc23)cc1 | inconclusive: 17.8 µM [inhibitor, partial curve, poor fit] | –
24 | COc1ccc(S(=O)(=O)N(C(=O)c2ccncc2)c2ccc3oc(C)c(C(C)=O)c3c2)cc1 | inconclusive: 17.8 µM [inhibitor, partial curve, poor fit] | –
25 | Cc1ccc(CNC(=O)C2CCN(S(=O)(=O)c3c(C)noc3/C=C/c3ccccc3F)CC2)o1 | inconclusive: 3.55 µM [inhibitor, full curve, poor fit] | –
26 | CC(Sc1nc(Cl)nc2nc[nH]c12)C(=O)N1CCN(c2ccccc2)CC1 (stereo not drawn) | inconclusive: 22.4 µM [inhibitor, single point] | –
27 | CC(=O)NCCNc1nc2c(-c3cccc(C(F)(F)F)c3)nnn2c2ccccc12 | inconclusive: 28.2 µM [inhibitor, partial curve, poor fit] | –
28 | O=C(C1CCCNC1)N1CCCn2cc(-c3ccccc3F)nc21 (stereo not drawn) | inconclusive: 17.8 µM [inhibitor, partial curve] | –
29 | COc1ccc(-c2ccc3nnc(CNC(=O)c4cccc(C#N)c4)n3n2)cc1 | active: 28.2 µM | –
30 | CCCc1cc(=O)oc2c3c(cc(OCC(=O)N[C@@H](C)C(=O)O)c12)OC(C)(C)CC3 | inconclusive: 39.8 µM [inhibitor, partial curve, poor fit] | –
31 | CSCC(=O)NCCc1ccccn1 | inactive | –
32 | O=C(O)/C(=N/NC(=O)c1ccc(Cl)cc1)c1ccccc1 | inconclusive: 39.8 µM [inhibitor, single point] | –
33 | O=C(O)Cc1ccc2c(c1)[nH]c1ccc(Br)cc12 | inactive | –
34 | COc1ccc2c(C)c(CC(=O)O)c(=O)oc2c1OC | inconclusive: 31.6 µM [inhibitor, partial curve, poor fit] | –
35 | CCN1CCN(Cc2cc(C)cc(CN(C)Cc3ccccn3)c2C)CC1 | inactive | –
36 | Cc1ccccc1C(=O)Nc1ccc2nc(SCC(=O)N(C)c3ccccc3)sc2c1 | inconclusive: 35.5 µM [inhibitor, single point] | –
37 | Cc1cccc(Cn2c(SCc3ccc(C(=O)NCc4cccs4)cc3)nc3ccncc32)c1 | inconclusive: 25.1 µM [inhibitor, single point] | –
38 | CC(=O)N/N=C/c1cc(Cl)ccc1OCCCOc1cc(C)ccc1C(C)C | inactive | –
39 | COc1ccc2c(COC(=O)c3cc4ccccc4cc3O)cc(=O)oc2c1 | inactive | –
40 | COc1ccc(NC(=O)CCc2ccnc(N3CCCC3)c2)c(OC)c1 | inconclusive: 25.1 µM [inhibitor, single point] | –
41 | O[C@@H]1[C@@H](O)[C@H](n2c3ccc(Cl)cc3c3ccc4c5cc(Cl)ccc5[nH]c4c32)OC[C@H]1O | inconclusive: 22.4 µM [inhibitor, partial curve, poor fit] | –
42 | CN(Cc1cnccn1)c1ccc(-c2nc(CCCc3ccccc3)no2)cn1 | inconclusive: 28.2 µM [inhibitor, partial curve, poor fit] | –

Row | SMILES | Potency | activity change, negative = inhibition
43 | COc1cncc(CN2CCC3(CC2)OC(=O)N(Cc2csc(C)n2)C3(C)c2ccccc2)c1 (stereo not drawn) | inconclusive: 25.1 µM [inhibitor, single point] | –
44 | CCc1ccc(C(=O)N2CCC3(CC2)N=C(c2ccc(C)cc2)NO3)cc1 | inconclusive: 39.8 µM [inhibitor, partial curve, poor fit] | –
45 | Cn1cc(-c2cc3n(n2)CCC(=O)N3CC(=O)NCc2ccccc2)c2ccccc21 | – | inconclusive: -34.7% [inhibitor]
46 | CC(C)c1ccc(NC(=O)CSC2=Nc3ccccc3C3=NC(CC(=O)NCCc4ccccc4)C(=O)N23)cc1 (stereo not drawn) | inconclusive: 35.5 µM [inhibitor, single point] | –
47 | Cc1noc(C)c1-c1nccc2c(=O)cc(-c3ccccn3)oc12 | active: 28.2 µM | –
48 | Cc1cccc(C)c1-n1nnnc1SCC(=O)NCC1(N2CCOCC2)CCCCC1 | inactive | –
49 | Cc1ccc(Nc2c(-c3cccc(Cl)c3)nc3cccc(C)n23)cc1 | inconclusive: 31.6 µM [inhibitor, partial curve, poor fit] | –
50 | CCC(=O)N1c2ccccc2CC1C(=O)NCCN1CCN(c2ccccc2F)CC1 (stereo not drawn) | inconclusive: 31.6 µM [inhibitor, single point] | –
51 | O=C(c1ccccc1)N1CCC(N2CCCOC2=O)CC1 | inactive | –
52 | O=C(O)C(c1c[nH]c2cc(F)ccc12)N1CCN(CCNc2cc(=O)oc3ccccc23)CC1 (stereo not drawn) | inactive | –
53 | CC(C)OC(=O)N1CCC(COc2ccc3c(cnn3CC[S+](C)(=O)[O-])c2)CC1 | inactive | –
54 | Cc1noc(C)c1C(=O)NCC1Cn2cccc2CN1C (stereo not drawn) | inconclusive: 10 µM [inhibitor, partial curve] | –
55 | O=C(OCc1ncc(-c2ccccc2)o1)c1cncc(Br)c1 | inconclusive: 25.1 µM [inhibitor, single point] | –
56 | CC(C)(C)CC(=O)NC[C@H]1OC[C@@H](NC2CCNCC2)[C@@H]1O | inconclusive: 39.8 µM [inhibitor, partial curve, poor fit] | –
57 | CCCCC1CCC[S+](c2cc(O)ccc2O)C1 (stereo not drawn) | inconclusive: 28.2 µM [inhibitor, partial curve, poor fit] | –
58 | O=C(COc1ccc(Cl)cc1Cl)Nc1ccc(C(=O)OC2CCCCC2)cc1 | inconclusive: 2.24 µM [inhibitor, full curve, poor fit] | –
59 | Cc1cnc(C(=O)NC2C[C@H]3CC[C@@H](C2)N3C(=O)CCc2ccccc2)cn1 (stereo partly drawn) | inactive | –
60 | CCOC(=O)c1cc(OC(=O)c2cc(Cl)ccc2OC)n(-c2ccccc2)n1 | inconclusive: 25.1 µM [inhibitor, single point] | –
61 | Clc1ccc(-c2nnc(-c3cccc4ccccc34)o2)cc1Cl | inconclusive: 22.4 µM [inhibitor, partial curve, poor fit] | –
62 | NC(N)=NCCCN1CCCC1 | inconclusive: 15.8 µM [inhibitor, partial curve, poor fit] | –
63 | CN(C)c1cccc(C(=O)N2CCC3(CC2)N=C(c2ccc(Br)cc2)NO3)c1 | inconclusive: 25.1 µM [inhibitor, single point] | –
